{
  "source": "the RNAGym collection of RNA variant scans (doi:10.7554/elife.90254)",
  "parents": {"B1": {"name": "LINE1-mini (parent)", "chain": "GGCAGAGCUCAACACAGCGUGGCAAAGUGGCUGUGGCUAGACUGCC"}},
  "note": "The source gives no read counts; variants with many changes may rest on few reads.",
  "data": [
    {"variants_of": "B1", "assay": "self-cleavage, relative activity (ratio to wild type); higher = more cleavage; in vitro, sequencing; the parent is a self-cleaving ribozyme", "values": [
      {"variant": "GGCCGAGCUCAACACAGCGUGGCAAAGUGGCUGUGGAUAGACGUCC", "note": "[A4C C37A U43G G44U]", "self-cleavage": 0.24},
      {"variant": "GGCCGUGCUCAACACAGCGUGGCAAAGUAGCUGUGGCUAGACUGCC", "note": "[A4C A6U G29A]", "self-cleavage": 0.04},
      {"variant": "GGCCGAGCUCAACACAGCGUGGCAAAGUGGCUGUGGAUAGAGUGCC", "note": "[A4C C37A C42G]", "self-cleavage": 0},
      {"variant": "GGCCGAGCUCAACUCAGCGUGGCCAUGUGGCUGUGGCUAGACUGCC", "note": "[A4C A14U A24C A26U]", "self-cleavage": 0.05},
      {"variant": "GGCCGCGCUCAACACAGCGUGGCAAAGUGGCUGUGGCUAGCCUGCC", "note": "[A4C A6C A41C]", "self-cleavage": 0},
      {"variant": "GGCCGAGCUCAACCCAGCGUGGCAAAGUGGCUCUGGCUAGACUGCC", "note": "[A4C A14C G33C]", "self-cleavage": 0.07},
      {"variant": "GGCCGAGCUCGACACAGCGUAGCUAAGUGGCUUUGGCUAGACUGCC", "note": "[A4C A11G G21A A24U G33U]", "self-cleavage": 0},
      {"variant": "GGCCGAGCUAAACCCAGCGUGGCAAAGUGGCUGUGGCUUGACUGCC", "note": "[A4C C10A A14C A39U]", "self-cleavage": 0.01},
      {"variant": "GGCCGAGCUCGACACAUAGUGGCAAAGUGGCUUUGGCUAGACUGAC", "note": "[A4C A11G G17U C18A G33U C45A]", "self-cleavage": 0.01},
      {"variant": "GGCCGAGCUAAUCACAGCGUGGCAAAGUGUCUGUGGCUAGACUGCC", "note": "[A4C C10A A12U G30U]", "self-cleavage": 0},
      {"variant": "GGCCGAGCUCAACACAGCGUGGCACAUUUGCUGUGGCUAGACUGGC", "note": "[A4C A25C G27U G29U C45G]", "self-cleavage": 0.01},
      {"variant": "GGCCGAGCUCAACACAGCGUGGCAAUGUGGCUUUGGCUAGACUGCC", "note": "[A4C A26U G33U]", "self-cleavage": 0.13},
      {"variant": "GGCCGAGUUCGACACAGGGUGGCAAAUUGGCAGUGGCUAGACUGCC", "note": "[A4C C8U A11G C18G G27U U32A]", "self-cleavage": 0.01},
      {"variant": "GGCCGAGCUCACCACAGCGUGGCAAAGUGGCUCUGGCUAGACUGCC", "note": "[A4C A12C G33C]", "self-cleavage": 0},
      {"variant": "GGCCGAGCUCAGCACAGCGUGGCAAAGUGGCUGUGGCUAUACUGCC", "note": "[A4C A12G G40U]", "self-cleavage": 0.38},
      {"variant": "GGCCGAGCUCAACACCGCGUGACAAAGUGGCUGUGGUUAGCCUUCC", "note": "[A4C A16C G22A C37U A41C G44U]", "self-cleavage": 0.1},
      {"variant": "GGCCGAGAUCAACACAGCGUGGCAAAGUCGCUGUGGCUAAACUGCC", "note": "[A4C C8A G29C G40A]", "self-cleavage": 0.07},
      {"variant": "GGCCGAGCUUAACACAGGGUGGCAAAGUGGCUGUGGCUAGUCCGCC", "note": "[A4C C10U C18G A41U U43C]", "self-cleavage": 0.03},
      {"variant": "GGCCGAGCUCAACACAGCGUGGCUGAGUGCCUGUGGCUAGACUGUC", "note": "[A4C A24U A25G G30C C45U]", "self-cleavage": 0.11},
      {"variant": "GGCCGAGCUCAACACAGUUUGACAAAGUGGCUGUGGCUAGACUGCC", "note": "[A4C C18U G19U G22A]", "self-cleavage": 0.06},
      {"variant": "GGCCGAGCUCAACUCCGCGUGGAUAAGUGGCAGUGGUUAGACUGCC", "note": "[A4C A14U A16C C23A A24U U32A C37U]", "self-cleavage": 0.08},
      {"variant": "GGCCGAGCUCAACACAGUGUGGCAAAGUGGCUGUGGCUAGACUGCA", "note": "[A4C C18U C46A]", "self-cleavage": 0.12},
      {"variant": "GGCCGAGCUCUACACAGCGUGGAAAAGUGGCUGUGGCUAGGCGGCC", "note": "[A4C A11U C23A A41G U43G]", "self-cleavage": 0.01},
      {"variant": "GGCCGAGCUAAACAUAGCCUGGCAAAGUGGCUGUGGCUAGACUGCC", "note": "[A4C C10A C15U G19C]", "self-cleavage": 0.17},
      {"variant": "GGCCGAGCUGAACACAGCAGGGCAAAGUCGCUGUGGCUAGACUUCC", "note": "[A4C C10G G19A U20G G29C G44U]", "self-cleavage": 0.01},
      {"variant": "GGCCGAGUUCAACGCAGCGUGGCAAAGUGGCUGUGGCUAGACUGCC", "note": "[A4C C8U A14G]", "self-cleavage": 0.04},
      {"variant": "GGCCGCGCUCAACACAGCGUGGCAAAAUGGCUGUGGCUAGACUGUC", "note": "[A4C A6C G27A C45U]", "self-cleavage": 0.04},
      {"variant": "GGCCGAGCUAAAGACAGCGUGGCAAAGUGGCUGUGGCUAGACUGCC", "note": "[A4C C10A C13G]", "self-cleavage": 0.02},
      {"variant": "GGCCGAGCUCAACACAGCGUGGCAAAGUGGCUGUGGGUAGACUACC", "note": "[A4C C37G G44A]", "self-cleavage": 0.06},
      {"variant": "GGCCGAGCUCAACACAGCGUGGCAUAGUGGCUUUGGCCAGACUGCC", "note": "[A4C A25U G33U U38C]", "self-cleavage": 0.08},
      {"variant": "GGCCGAGCUCAUCAGAGCGUGGCAAAGUGGCUGUGGCUUGACUGCC", "note": "[A4C A12U C15G A39U]", "self-cleavage": 0.04},
      {"variant": "GGCCGAGCUCAACACAGCGUGGUACAGUGGCUGUGGCUAGACUGUC", "note": "[A4C C23U A25C C45U]", "self-cleavage": 0.12},
      {"variant": "GGCCGAGUUCAACAGAGCGUGGCAAAGUGGCUGUGGCUAGACUGCC", "note": "[A4C C8U C15G]", "self-cleavage": 0.23},
      {"variant": "GGCCGAGCUCCACGCAGCGUGGCAAAGUGGCAGUGGCUAGACUGCC", "note": "[A4C A11C A14G U32A]", "self-cleavage": 0.09},
      {"variant": "GGCCGAGCUCAACACAGCGUGGCUAAGUGGCUGUGGCUGGACCGGC", "note": "[A4C A24U A39G U43C C45G]", "self-cleavage": 0},
      {"variant": "GGCCGCGCGCAACACAGCGUGGCAAAGUGGCUGUGGCUAGACUGCC", "note": "[A4C A6C U9G]", "self-cleavage": 0.05},
      {"variant": "GGUAGAGCUCAACACAGCGUGGCAAAGGGGCUUUGGCUAGACAGCC", "note": "[C3U U28G G33U U43A]", "self-cleavage": 0.01},
      {"variant": "GGCCGAGCUCAACACAGCGUGGCCAAGUGGCUCUGGCUAGACUGCC", "note": "[A4C A24C G33C]", "self-cleavage": 0},
      {"variant": "GGCCGAGCUUAACACAGCGUGGCAAAGUCGCUGUGGCUAGACUGAC", "note": "[A4C C10U G29C C45A]", "self-cleavage": 0.02},
      {"variant": "GGCCGAGAUCAACACAGCGUGGCAAAGUGGCUGUGGCUAAACUGCC", "note": "[A4C C8A G40A]", "self-cleavage": 0.05},
      {"variant": "GGCCGAGCUCAACACAGCGUGGAAAAGUGGCUGUGACUAGACUUCC", "note": "[A4C C23A G36A G44U]", "self-cleavage": 0.35},
      {"variant": "GGCCGAGCUCAGCACAGCGUAGCAAAGUGGCUGUGGCUAGACUGCC", "note": "[A4C A12G G21A]", "self-cleavage": 0.08},
      {"variant": "GGCCGAGCUCAACACAGCGUGGCACAGUGGGUGUGGCUAGACUGCC", "note": "[A4C A25C C31G]", "self-cleavage": 0.04},
      {"variant": "GGCCGAGCUCAACACAGCGUGGAAAAGUGGUUGUGGCUAGACUGCG", "note": "[A4C C23A C31U C46G]", "self-cleavage": 0.1},
      {"variant": "GGCCGAGCUAAACACAGCGCGUCAAAGUGGCUGUGGCUAGACUGCC", "note": "[A4C C10A U20C G22U]", "self-cleavage": 0.02},
      {"variant": "GGCCGAGCUCAACACAGCGUGGAAAAGUGGCUGUCGCUAGACUUCC", "note": "[A4C C23A G35C G44U]", "self-cleavage": 0.3},
      {"variant": "GGCCGAGCUGAACUCAGCAUGGCAAAGUGGCUGUGGCUAGACUGCC", "note": "[A4C C10G A14U G19A]", "self-cleavage": 0.02},
      {"variant": "GGCCGAGGUCAACACAGCGUGGCAAAGUGGCUGUGGCUGGACUGCC", "note": "[A4C C8G A39G]", "self-cleavage": 0.01},
      {"variant": "GGCCGGGCUAAACACAGCGUGGCAAAGUGGGUGUGGCUAGACUGCC", "note": "[A4C A6G C10A C31G]", "self-cleavage": 0.07},
      {"variant": "GGUAGAGCUCAACACAGCGUGGCAAAGCGGCUGUGGCUAGACUGGC", "note": "[C3U U28C C45G]", "self-cleavage": 0.05},
      {"variant": "GGCCGAGGUCAACACAACGUGGCAAAGUGGCUGUGGCUACACUGGC", "note": "[A4C C8G G17A G40C C45G]", "self-cleavage": 0.06},
      {"variant": "GGCCGAGCUCAACACAGCGUGGUAAAGUGGCUGUGGCUAGACUACC", "note": "[A4C C23U G44A]", "self-cleavage": 0.23},
      {"variant": "GGCCGAGCUGAACACAGAGUGGCAAAGUGGCUAUGGCUAGACCGGC", "note": "[A4C C10G C18A G33A U43C C45G]", "self-cleavage": 0},
      {"variant": "GGCCGAGCUCAAAACAGCGUGGCAAAGUGGUUGUGGCUAGACUGCC", "note": "[A4C C13A C31U]", "self-cleavage": 0.17},
      {"variant": "GGCCGAGCUCAUCACAGCGUGGCAAAGUGGCGGUGGCUAGACUACC", "note": "[A4C A12U U32G G44A]", "self-cleavage": 0.12},
      {"variant": "GGCCGAGAUACACACAGCGUGGCAUAGUGGCUGUGGCUAGACUGCC", "note": "[A4C C8A C10A A11C A25U]", "self-cleavage": 0.08}
    ]}
  ]
}
